Source: paper PMC4336329 (PLoS ONE, 2015)
Hit rate of the full screen: of about 310,000 compounds, about 2,200 (0.71%) showed an effect of 50% or more. The effect is printed as a negative number. This is one part of the list.

The molecules below were run against human ether-à-go-go-related gene (hERG) potassium channel (human, UniProt Q12809) (assay: primary screen, population patch clamp on CHO cells stably expressing hERG).
human ether-à-go-go-related gene (hERG) potassium channel, sequence (Q12809 whole entry, looked up): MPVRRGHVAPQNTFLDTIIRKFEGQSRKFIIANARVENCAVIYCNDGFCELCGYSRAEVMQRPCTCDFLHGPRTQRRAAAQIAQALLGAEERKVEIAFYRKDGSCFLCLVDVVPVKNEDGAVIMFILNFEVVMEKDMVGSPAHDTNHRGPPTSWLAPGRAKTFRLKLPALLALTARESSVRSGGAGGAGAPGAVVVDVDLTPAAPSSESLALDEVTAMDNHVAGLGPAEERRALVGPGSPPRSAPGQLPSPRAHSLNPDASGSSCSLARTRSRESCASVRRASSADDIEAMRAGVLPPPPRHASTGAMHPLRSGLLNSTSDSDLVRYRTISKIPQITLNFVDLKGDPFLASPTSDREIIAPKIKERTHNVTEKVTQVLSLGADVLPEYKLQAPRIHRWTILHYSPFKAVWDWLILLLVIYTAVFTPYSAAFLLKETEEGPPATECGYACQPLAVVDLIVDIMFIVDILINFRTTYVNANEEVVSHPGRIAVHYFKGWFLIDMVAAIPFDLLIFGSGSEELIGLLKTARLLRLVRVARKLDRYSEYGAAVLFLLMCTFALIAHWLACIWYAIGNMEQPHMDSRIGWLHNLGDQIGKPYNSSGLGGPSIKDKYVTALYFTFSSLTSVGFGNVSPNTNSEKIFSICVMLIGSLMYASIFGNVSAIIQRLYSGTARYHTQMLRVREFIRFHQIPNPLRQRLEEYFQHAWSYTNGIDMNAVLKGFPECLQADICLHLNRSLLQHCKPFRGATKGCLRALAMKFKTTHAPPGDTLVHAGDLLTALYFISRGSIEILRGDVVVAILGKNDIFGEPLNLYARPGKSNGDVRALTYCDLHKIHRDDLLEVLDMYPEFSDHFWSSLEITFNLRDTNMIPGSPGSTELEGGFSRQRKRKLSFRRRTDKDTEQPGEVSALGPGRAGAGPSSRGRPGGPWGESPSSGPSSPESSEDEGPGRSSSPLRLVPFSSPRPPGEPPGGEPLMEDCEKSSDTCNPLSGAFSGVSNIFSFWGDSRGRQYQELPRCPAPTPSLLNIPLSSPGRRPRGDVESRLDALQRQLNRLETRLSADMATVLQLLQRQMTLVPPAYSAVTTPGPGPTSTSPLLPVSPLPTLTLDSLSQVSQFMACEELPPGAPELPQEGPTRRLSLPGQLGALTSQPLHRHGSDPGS

| SMILES | hERG current change (%, negative = inhibition) at 1uM [%] |
| --- | --- |
| Cc1ccc(S(=O)(=O)N2CCN(CC(=O)N/N=C\c3ccc(Cl)c([N+](=O)[O-])c3)CC2)cc1 | 8.54 |
| Cc1cccc(-c2n[nH]c(=S)n2/N=C/C=C/c2ccco2)c1 | 12.8 |
| CCOC(=O)/C(N=Nc1ccc2c(c1)OCO2)=C(\C)O | 3.39 |
| COc1cccc(C(=O)Nc2nnc(S(=O)(=O)N(C)Cc3ccccc3)s2)c1 | 12.8 |
| CSc1ccccc1NC(=O)CN(C)CC(=O)Nc1c(F)cccc1F.O=C(O)C(=O)O | 12.1 |
| CC(=O)Nc1ccc(S(=O)(=O)N2CCN(Cc3cccc([N+](=O)[O-])c3)CC2)cc1.O=C(O)C(=O)O | 11.9 |
| CC(C)=CCC/C(C)=C/C(=O)O | 13.4 |
| COCn1c(=O)c2c(nc(SC3=NCCS3)n2Cc2ccccc2C)n(COC)c1=O | 12.6 |
| COc1ccc(CCC(C)NCc2ccccc2OC)cc1 (stereo not drawn) | 1.77 |
| C[C@H](NC(=O)c1ccccc1Cl)C(=O)OCCOc1cccc(Cl)c1 | -0.0512 |
| CCN(CC)C(=O)Oc1ccc2c(=O)c(-c3ccc(OC)cc3)c(C)oc2c1 | 3.69 |
| COc1ccc(/C=C2/C(=N)N3C(=NC2=O)Sc2cc(S(C)(=O)=O)ccc23)cc1OC | 7.17 |
| Cc1cc(N2C(=O)C3CC=CCC3C2=O)no1 (stereo not drawn) | -1.11 |
| O=C(Cn1c2ccc(F)cc2c2nc3n(c(=O)c21)CCS3)Nc1ccc(Cl)cc1F | -3.84 |
| NS(=O)(=O)c1ccc(CNC(=O)c2sccc2-c2ccccc2)cc1 | 5.85 |
| O=C(NNC(=O)C1CCC1)c1ccc(Cl)cc1 | 2.55 |
| CC(C)[C@H](NC(=O)N1CCn2c1nc1ccccc12)C(=O)NC1CCCCC1 | 7.57 |
| Cc1ccc(CNC(=O)C(c2ccccc2)c2ccccc2)cc1 | -18 |
| N#Cc1cccc(CN2CCC(=O)N([C@H](CO)c3ccccc3)CC2)c1 | 4.05 |
| O=C(N/N=C/c1cn(-c2ccccc2)nc1-c1cc2ccccc2o1)c1ccccc1Br | 0.297 |
| Cc1ccc(S(=O)(=O)NCC(=O)OCc2cc(=O)oc3cc(C)ccc23)cc1 | 4.36 |
| Cc1ccc(C(=O)NCCc2ccccc2)cc1S(=O)(=O)N1CCOCC1 | 1.29 |

| SMILES | hERG current change (%, negative = inhibition) at 1uM [%] |
| --- | --- |
| Cc1oc2c(C)c3oc(=O)c(CCC(=O)N4CCC(C(=O)NCCC(=O)O)(c5ccccc5)CC4)c(C)c3cc2c1C | 9.7 |
| Cc1ccc(OCC(O)CN2CCN(c3ccccc3)CC2)cc1 (stereo not drawn) | -0.16 |
| COc1cccc2cc(-c3nc4ccccc4[nH]3)c(=O)oc12 | 16.1 |
| O=C(c1[nH]ncc1-c1cccc(Br)c1)C1CO1 (stereo not drawn) | 13.7 |
| CC1CCCCC1NC(=O)CO/N=C/c1ccc(OC(F)F)cc1 (stereo not drawn) | -10.8 |
| O=C(NCc1ccccc1Cl)C1CCCN(S(=O)(=O)c2cnc[nH]2)C1 (stereo not drawn) | 14.3 |
| CN(C)S(=O)(=O)c1ccc(NC(=O)CCNC(=O)c2ccc([N+](=O)[O-])cc2)cc1 | 10 |
| COc1ccc(CNC(=O)C2CCN(S(=O)(=O)c3c(C)noc3/C=C/N(C)C)CC2)cc1 | -2.45 |
| Cc1cccc(OCCn2nc(C(=O)O)c3ccccc3c2=O)c1 | -2.97 |
| CN(CC(=O)Nc1ccc(Cl)cc1)C(=O)CNC(=O)c1cccs1 | 11.5 |
| COC(C(=O)NNC(=O)CCc1ccccc1)c1ccccc1 (stereo not drawn) | 9.15 |
| CSc1nc2ccccc2c(=O)n1C1CCOC(C)(C)C1 (stereo not drawn) | 6.17 |
| Cc1nc2ccc(S(=O)(=O)NCC(=O)N(C)Cc3ccco3)cc2s1 | 2.54 |
| CC(=O)N(c1cccc(C(F)(F)F)c1)c1nc(/C=C/C(=O)O)cs1 | 5.3 |
| COc1ccc(C(=O)NCCc2cccc(Cl)c2)cc1OC1CCN(C(C)=O)CC1 | -6.31 |
| O=C(O)c1ccc2c(c1)C(=O)N(C(Cc1ccccc1)C(=O)O)C2=O (stereo not drawn) | 10.1 |
| Cc1ccc([N+](=O)[O-])c2c1C(N1CC(C)OC(C)C1)C(C)(C)O2 (stereo not drawn) | 17.1 |
| [NH-]S(=O)(=O)c1ccccc1.[Na+] | 8.56 |
| COc1ccc(OCC(=O)Nc2cccc(OC)c2)cc1 | 19.4 |
| COc1ccc(S(=O)(=O)NCCOc2ccc(Cl)cc2)cc1 | 2.66 |
| Cc1cccc(NC(=O)C2CC(=O)N(c3ccc4c(c3)OCCO4)C2)n1 (stereo not drawn) | 16.7 |
| O=C(NCCCN1CCCC1)[C@H](CSCc1ccccc1)N1Cc2ccccc2C1=O | -29.8 |

| SMILES | hERG current change (%, negative = inhibition) at 1uM [%] |
| --- | --- |
| O=C(NCc1ccccn1)C(=O)NCC1OCCCN1S(=O)(=O)c1ccc(F)cc1 (stereo not drawn) | 13.5 |
| CC(=O)N1C(=O)N(C(C)=O)C2C1N(C)C(=O)N2C(C)=O (stereo not drawn) | 12.5 |
| CC(=O)N1CCN(c2nc(-c3ccco3)c3c(c2C#N)CC(C)(C)SC3)CC1 | 7.62 |
| COc1cccc(C(=O)Nc2cccc(NC(C)=O)c2)c1 | 3.08 |
| C=Cc1ccc(Cn2c(=O)n(C)c(=O)c3sccc32)cc1 | 12.4 |
| C=CCn1c(SCc2ccc(C#N)cc2)nnc1-c1ccccc1 | -35.1 |
| COc1cccc(C(=O)Nc2ccc(NC(C)=O)cc2)c1 | 7.57 |
| COc1cc(OC)cc(C(=O)N/N=C(\C)CC(=O)Nc2ccccn2)c1 | 13.6 |
| Cn1cccc1-c1nc2ccc(NC(=O)c3ccccc3)cc2[nH]1 | -12.8 |
| COc1ccc(NC(=O)C(NC(=O)c2ccc(=O)[nH]c2)c2ccccc2)cc1 (stereo not drawn) | 13.1 |
| Cc1ccc(/C=C/C(O)=C2/C(=O)N(C)C3(C)CC2c2ccccc2O3)cc1 (stereo not drawn) | 10.3 |
| COc1ccccc1NC(=O)C(=O)N/N=C/c1cccs1 | 8.27 |
| COc1ccc(NC(=O)CCC2CCCC2)cc1OC | 5.85 |
| CN(C)/C(=N\S(=O)(=O)c1ccc(F)cc1)c1ccccc1 | 11.8 |
| O=C(NC1C(=O)NNC1c1ccccc1)c1ccccc1 (stereo not drawn) | -5.93 |
| COC(=O)C1=C(c2ccc(S(C)(=O)=O)cc2)C[C@@H]2CC[C@H]1N2C(=O)N1CCCCC1 | 9.24 |
| Cn1c(CCN2CCOCC2)nc2cc(NC(=O)c3cccs3)ccc21 | 3.64 |
| COc1ccccc1NC(=O)Cn1c([N+](=O)[O-])cnc1C | 10.2 |
| O=S(=O)(c1ccccc1)N1N=C(c2ccc(O)cc2)CC1c1ccco1 (stereo not drawn) | 9.61 |
| COc1ccccc1C1C(C(N)=O)=C(C)Nc2nc(CCCO)nn21 (stereo not drawn) | 16.2 |
| Cc1cc(C)c(C(=O)Nn2c(C)nc3ccccc3c2=O)cc1C | 4.51 |
| COCCNC(=O)NC(=O)COC(=O)C12CC3CC(CC(NC(C)=O)(C3)C1)C2 | 12.1 |

| SMILES | hERG current change (%, negative = inhibition) at 1uM [%] |
| --- | --- |
| O=C(O)CSCC(=O)Nc1ccccc1 | -1.4 |
| COC(=O)c1cc(OC)c(OC)cc1NC(=S)Nc1cc(Cl)ccc1OC | 9.55 |
| Cc1nnc(NC(=O)C23CC4CC(CC(C4)C2)C3)s1 | 15.3 |
| Cc1cccc(N2CCN(C(=O)c3ccc4c(c3)OCCO4)CC2C)c1 (stereo not drawn) | 3.1 |
| COc1ccc(CNc2nc(-c3cccnc3)nn2C(C)=O)cc1 | 11.7 |
| COC(=O)c1cc(=O)n(Cc2ccc3c(c2)OCO3)c(=Nc2ccc(F)c(Cl)c2)s1 | 15.5 |
| O=c1cc2ncc(-n3cc([N+](=O)[O-])cn3)cn2[nH]1 | 11.8 |
| S=C1NC2=C(CCCC2)C2(CCCCC2)N1 | 11.9 |
| O=C(Nc1nnc(-c2ccccc2Cl)s1)C1CCN(S(=O)(=O)c2ccc(Cl)cc2)CC1 | 23.4 |
| C=CCn1c(SCC(=O)Nc2ccc3c(c2)OCO3)nnc1-c1ccccc1 | 2.67 |
| Cc1ccc(S(=O)(=O)Oc2ccccc2/C=C2/SC(=O)NC2=O)cc1 | 15.9 |
| CCOC(=O)c1cnc2[nH]c3ccccc3n2c1=O | 22 |
| Cc1ccc(NS(=O)(=O)c2cc(NC(=O)c3cc(=O)[nH]c(=O)[nH]3)ccc2Cl)c(C)c1 | 13.8 |
| COc1ccc(-c2nn(-c3ccccc3)cc2C2CC(c3cccs3)=NN2C(=O)CCCC(=O)O)cc1 (stereo not drawn) | 21.2 |
| Cc1c(NC(=O)OCCSc2nc(N(C)C)nc(N(C)C)n2)sc(=S)n1C | 12.8 |
| CCc1cccc(CC)c1NC(=S)Nc1ccccc1 | 13.8 |
| COc1ccc(/C=C2\CCOC2=O)cc1 | 12.3 |
| CCN(CC)CCCNc1nc(SC)nc2sc3c(c12)CCN(C)C3 | 5.51 |
| O=C1c2ccccc2C(=O)N1CCCc1nc2ccccc2c(=O)n1-c1cccnc1 | -24.3 |
| CC1=NN(c2ccc(C(=O)O)cc2)C(=O)/C1=C\c1ccc(OC(=O)c2cccs2)cc1 | 13.2 |
| NC(=O)CC(NC(=O)Cc1ccc(Br)cc1)c1ccc(NCc2ccccn2)c([N+](=O)[O-])c1 (stereo not drawn) | 7.46 |
